Structures are written as SMILES. This is one part of the list. Single values are uncertain, as repeats are few or missing.
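Also: cells treated in 1,536-well plates, then fixed and DAPI-stained, with nuclei counted from automated high-throughput microscope images.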

The experiment has as its system A2058. As to the kind of experiment: cell count relative to DMSO control; melanoma cells; higher = more viable cells. As to conditions: library dose: standard library concentration; 72 h.
`CC(C)(C)c1cnc(CSc2cnc(NC(=O)C3CCNCC3)s2)o1` + NC(=O)Nc1cc(-c2cccc(F)c2)sc1C(=O)N[C@H]1CCCNC1 [AZD7762] (first compound 0.05 µM, partner dose 0.1 µM) returned a cell count of 63.7%.

As to `CCCCCCCCc1ccc(CCC(N)(CO)CO)cc1` [fingolimod] + C=CCn1c(=O)c2cnc(Nc3ccc(N4CCN(C)CC4)cc3)nc2n1-c1cccc(C(C)(C)O)n1 [MK1775] (first compound 10 µM, partner dose 0.1 µM), the cell count worked out at 2.63%.

In the case of `NC(=O)c1ccc(N(C(N)=O)c2c(F)cccc2F)nc1-c1ccc(F)cc1F` + CS(=O)(=O)c1ccc(C(=O)Nc2ccc(Cl)c(-c3ccccn3)c2)c(Cl)c1 [vismodegib] (first compound 2 µM, partner dose 5 µM), the cell count was found to be 143%.

As to `CCc1ccc(CCOc2ccc(CC3SC(=O)NC3=O)cc2)nc1` (stereo not given) [pioglitazone] + O=C(O)C(=O)Nc1sc2c(c1C(=O)O)CCNC2 [TCS401] (first compound 10 µM, partner dose 8.33333 µM), the cell count was determined as 104%.

With `CCCCCCCCc1ccc(CCC(N)(CO)CO)cc1` [fingolimod] + Cc1cc(N2CCOCC2)cc2[nH]c(-c3c(NC[C@@H](O)c4cccc(Cl)c4)cc[nH]c3=O)nc12 [BMS536924] (first compound 10 µM, partner dose 1 µM), the cell count is 4.27%.

`NC(=O)c1ccc(N(C(N)=O)c2c(F)cccc2F)nc1-c1ccc(F)cc1F` + Cn1cncc1[C@@](N)(c1ccc(Cl)cc1)c1ccc2c(c1)c(-c1cccc(Cl)c1)cc(=O)n2C [tipifarnib] (first compound 2 µM, partner dose 0.05 µM) displayed a cell count of 91.8%.

`CCCCCCCCc1ccc(CCC(N)(CO)CO)cc1` [fingolimod] + C=C(c1ccc(C(=O)O)cc1)c1cc2c(cc1C)C(C)(C)CCC2(C)C [Bexarotene] (first compound 10 µM, partner dose 10 µM) displayed a cell count of 3.71%.

Take `Cc1ccc(NC(=O)c2cccc(N(C)C)c2)cc1NC(=O)c1ccc(O)cc1` + CO[C@@H]1[C@H](N(C)C(=O)c2ccccc2)C[C@H]2O[C@]1(C)n1c3ccccc3c3c4c(c5c6ccccc6n2c5c31)C(=O)NC4 [Midostaurin] (first compound 10 µM, partner dose 0.4 µM): the cell count was determined as 53.8%.

`NC(=O)c1ccc(N(C(N)=O)c2c(F)cccc2F)nc1-c1ccc(F)cc1F` + Cc1cc(Nc2cc(N3CCN(C)CC3)nc(/C=C/c3ccccc3)n2)n[nH]1 [ENMD2076] (first compound 2 µM, partner dose 0.2 µM) had a cell count of 127%.

`NC(=O)c1ccc(N(C(N)=O)c2c(F)cccc2F)nc1-c1ccc(F)cc1F` + OCCn1cc(-c2cnc3nnn(Cc4ccc5ncccc5c4)c3n2)cn1 [PF04217903] (first compound 2 µM, partner dose 5 µM) returned a cell count of 89.2%.

Consider `CCCCCCCCc1ccc(CCC(N)(CO)CO)cc1` [fingolimod] + CN1CCN(c2ccc3nc(-c4c(N)c5c(F)cccc5[nH]c4=O)[nH]c3c2)CC1 [Dovitinib] (first compound 10 µM, partner dose 0.5 µM), for which the cell count was 3.27%.

As to `CCCCCCCCc1ccc(CCC(N)(CO)CO)cc1` [fingolimod] + CC1(C)NC(=O)N(c2ccc([N+](=O)[O-])c(C(F)(F)F)c2)C1=O [nilutamide] (first compound 10 µM, partner dose 5 µM), the cell count worked out at 6.11%.

As to `Cc1ccc(NC(=O)c2cccc(N(C)C)c2)cc1NC(=O)c1ccc(O)cc1` + OCCn1cc(-c2cnc3nnn(Cc4ccc5ncccc5c4)c3n2)cn1 [PF04217903] (first compound 10 µM, partner dose 5 µM), the cell count turned out to be 91.3%.

On to `NC(=O)c1ccc(N(C(N)=O)c2c(F)cccc2F)nc1-c1ccc(F)cc1F` + Nc1nc(F)nc2c1ncn2[C@@H]1O[C@H](CO)[C@@H](O)[C@@H]1O [fludarabine] (first compound 2 µM, partner dose 1 µM), for which the cell count came out at 87%.

`NC(=O)c1ccc(N(C(N)=O)c2c(F)cccc2F)nc1-c1ccc(F)cc1F` + CC1(C)NC(=O)N(c2ccc([N+](=O)[O-])c(C(F)(F)F)c2)C1=O [nilutamide] (first compound 2 µM, partner dose 5 µM) yielded a cell count of 105%.

For the origin of these results see the supplement of paper PMC4604168 (melanoma cell lines).
